Reference: article PMC4336329 (PLoS ONE, 2015)
Among all 310,000 compounds or so, about 14,000 (4.5%) showed an effect of 50% or more. The effect is printed as a negative number. The list shows a part of the results.

Biological target: human ether-à-go-go-related gene (hERG) potassium channel (human, UniProt Q12809)
Test: primary screen, population patch clamp on CHO cells stably expressing hERG
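Further: peak tail current of the secondary pulse compared with the same well before compound.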

Sequence of human ether-à-go-go-related gene (hERG) potassium channel (Q12809 whole entry, looked up): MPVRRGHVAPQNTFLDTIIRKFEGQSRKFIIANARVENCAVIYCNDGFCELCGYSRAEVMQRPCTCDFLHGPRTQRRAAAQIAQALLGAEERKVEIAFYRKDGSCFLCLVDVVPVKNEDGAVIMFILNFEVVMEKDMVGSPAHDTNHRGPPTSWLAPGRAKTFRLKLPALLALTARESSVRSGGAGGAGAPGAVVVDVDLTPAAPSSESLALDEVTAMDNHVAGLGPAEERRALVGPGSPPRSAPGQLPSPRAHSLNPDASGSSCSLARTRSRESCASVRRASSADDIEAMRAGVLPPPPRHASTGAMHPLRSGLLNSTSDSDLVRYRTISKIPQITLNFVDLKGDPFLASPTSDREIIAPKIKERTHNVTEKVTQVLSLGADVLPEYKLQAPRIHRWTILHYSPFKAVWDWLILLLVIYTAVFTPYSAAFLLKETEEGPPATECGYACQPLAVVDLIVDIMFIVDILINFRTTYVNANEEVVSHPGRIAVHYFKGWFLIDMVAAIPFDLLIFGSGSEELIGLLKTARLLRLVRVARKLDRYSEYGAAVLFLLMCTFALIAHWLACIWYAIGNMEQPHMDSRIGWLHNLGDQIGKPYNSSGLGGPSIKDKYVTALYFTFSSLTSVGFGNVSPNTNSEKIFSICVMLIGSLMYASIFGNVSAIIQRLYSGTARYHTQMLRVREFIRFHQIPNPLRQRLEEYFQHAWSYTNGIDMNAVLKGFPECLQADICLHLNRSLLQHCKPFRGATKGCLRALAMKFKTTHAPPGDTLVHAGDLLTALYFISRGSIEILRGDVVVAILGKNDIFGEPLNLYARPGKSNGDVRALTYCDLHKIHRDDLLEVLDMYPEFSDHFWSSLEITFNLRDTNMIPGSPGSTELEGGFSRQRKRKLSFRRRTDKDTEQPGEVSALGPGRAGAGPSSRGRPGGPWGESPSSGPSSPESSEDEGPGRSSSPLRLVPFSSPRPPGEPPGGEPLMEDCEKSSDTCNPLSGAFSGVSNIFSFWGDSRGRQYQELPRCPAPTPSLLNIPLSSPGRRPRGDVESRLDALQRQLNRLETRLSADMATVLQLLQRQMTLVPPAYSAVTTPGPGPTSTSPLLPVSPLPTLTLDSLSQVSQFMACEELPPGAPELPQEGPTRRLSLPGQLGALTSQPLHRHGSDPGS

`Cc1n[nH]c(=S)n1/N=C/c1ccc(-c2ccccc2[N+](=O)[O-])o1` was tested. Which “hERG current change (%, negative = inhibition) at 10uM” value did it give?
The value was 10.1%.

With `CC(C)CNS(=O)(=O)c1ccc(CCC(=O)N2CCOCC2)cc1` as the molecule, how does the “hERG current change (%, negative = inhibition) at 10uM” value read?
The value was -1.31%.

For `COc1cccc(COc2nc3c(c(=O)n(C)c(=O)n3C)n2C)c1`, which “hERG current change (%, negative = inhibition) at 10uM” value is on record?
The value was 1.51%.

With `N#Cc1cc2c(=O)n3ccccc3nc2n(-c2ccccc2Cl)c1=O` as the molecule, how does the “hERG current change (%, negative = inhibition) at 10uM” value read?
The value was 7.29%.

How did the “hERG current change (%, negative = inhibition) at 10uM” value turn out when `COC(=O)c1ccc(COc2ccc(/C=N/Nc3nc(C)cc(=O)[nH]3)cc2)cc1` was run?
The value was 3.55%.

`O=C1NN(c2ccccc2)C(=O)C2C3C=CC(C4CC34)C12` (stereo not shown) was tested. Which “hERG current change (%, negative = inhibition) at 10uM” value did it give?
Its value is 14%.

Which “hERG current change (%, negative = inhibition) at 10uM” value does the source give for `c1ccc(-n2ncc3c(N4CCCCC4)ncnc32)cc1` here?
The value was -15.4%.

Which “hERG current change (%, negative = inhibition) at 10uM” value does the source give for `CCOC(=O)CSc1nnc(CCc2nc3ccccc3[nH]2)n1C` here?
Its value is -0.184%.

With `CCN(CC(=O)Nc1ccc2c(c1)OCCO2)C(=O)/C=C/c1ccc(OC)c(OC)c1` as the molecule, how does the “hERG current change (%, negative = inhibition) at 10uM” value read?
The value was -8.86%.

With `COC(=O)CN(c1nc(C)cc(OC)n1)S(=O)(=O)c1ccc(C)cc1` as the molecule, how does the “hERG current change (%, negative = inhibition) at 10uM” value read?
Its value is -8.25%.

Which “hERG current change (%, negative = inhibition) at 10uM” value does the source give for `c1ccc(-c2nn3c(Cn4nnc5ccccc54)nnc3s2)cc1` here?
Its value is -4.36%.

How did the “hERG current change (%, negative = inhibition) at 10uM” value turn out when `COc1cc(C(N)=O)ccc1OCc1ccccc1` was run?
Its value is -5.4%.

How did the “hERG current change (%, negative = inhibition) at 10uM” value turn out when `CC(C)NC(=O)c1ccc2c(c1)N(CC(=O)N1CCCCC1)C(=O)C(C)(C)O2` was run?
Its value is 10.4%.

How did the “hERG current change (%, negative = inhibition) at 10uM” value turn out when `CN1CCN(S(=O)(=O)c2ccc(NC(=O)C(C)(C)C)cc2)CC1` was run?
The value was 6.75%.

For `COc1cccc(C(=O)NC2CCCc3c2cnn3-c2ccc(C)c(C)c2)c1OC` (stereo not shown), which “hERG current change (%, negative = inhibition) at 10uM” value is on record?
The value was -12.4%.

With `O=C(Nc1ccc(N2CCOCC2)cc1)C1CC(O)CN1S(=O)(=O)c1ccc(Cl)cc1` (stereo not shown) as the molecule, how does the “hERG current change (%, negative = inhibition) at 10uM” value read?
Its value is 22.5%.

`CC1=C(C(=O)OCc2ccc3c(c2)OCO3)C(c2ccccc2OCc2ccccc2)NC(=O)N1` (stereo not shown) was tested. Which “hERG current change (%, negative = inhibition) at 10uM” value did it give?
The value was 21.7%.

With `O=C(Nc1c[nH]c(=O)[nH]c1=O)c1ccc([N+](=O)[O-])cc1` as the molecule, how does the “hERG current change (%, negative = inhibition) at 10uM” value read?
Its value is 10%.

`CC(=O)Oc1ccc(-c2nc3cc(Cl)ccc3c(=O)o2)cc1` was tested. Which “hERG current change (%, negative = inhibition) at 10uM” value did it give?
Its value is 9.57%.

With `CCCCCNCc1cccc(Br)c1.Cl` as the molecule, how does the “hERG current change (%, negative = inhibition) at 10uM” value read?
Its value is -12%.

How did the “hERG current change (%, negative = inhibition) at 10uM” value turn out when `Cc1ccccc1OCC(=O)N/N=C/c1cc2ccccc2nc1Cl` was run?
The value was -2.19%.

With `COc1ccc(C(CNC(=O)Cc2c(F)cccc2Cl)N2CCCCC2)cc1` (stereo not shown) as the molecule, how does the “hERG current change (%, negative = inhibition) at 10uM” value read?
Its value is -26.3%.

With `Cc1cccc(NC(=O)/C(C#N)=C/c2ccc(Cl)cc2)n1` as the molecule, how does the “hERG current change (%, negative = inhibition) at 10uM” value read?
The value was 32.8%.

Which “hERG current change (%, negative = inhibition) at 10uM” value does the source give for `O=C([O-])Cn1c(COc2ccc(Cl)cc2)nc2ccccc21.[K+]` here?
Its value is -1.19%.

With `Cc1cc(C)nc(-n2nc(C)cc2NC(=O)C(C)C)n1` as the molecule, how does the “hERG current change (%, negative = inhibition) at 10uM” value read?
Its value is 16.9%.

How did the “hERG current change (%, negative = inhibition) at 10uM” value turn out when `CC(=O)c1ccc(-n2c(CCC(=O)O)ccc2-c2ccccc2)cc1` was run?
Its value is 9.24%.

For `Cc1ccc(CN2CCN(CC(=O)N3CCC4(CC3)OCCO4)C2=O)cc1`, which “hERG current change (%, negative = inhibition) at 10uM” value is on record?
Its value is 3%.

`O=C(COc1ccc(S(=O)(=O)NC2CCCCC2)cc1)N1CCN(c2cccc(Cl)c2)CC1` was tested. Which “hERG current change (%, negative = inhibition) at 10uM” value did it give?
Its value is -22.2%.

For `COc1ccc(Cl)cc1NC(=S)NCc1ccco1`, which “hERG current change (%, negative = inhibition) at 10uM” value is on record?
The value was -6.54%.

How did the “hERG current change (%, negative = inhibition) at 10uM” value turn out when `COc1ccc(C)cc1NC(=O)c1cc2c(s1)CCC2` was run?
Its value is -5.71%.

`O=C(NCc1ccco1)/C(=C/c1ccc(Br)cc1)NC(=O)c1ccco1` was tested. Which “hERG current change (%, negative = inhibition) at 10uM” value did it give?
The value was 0.657%.

`Cn1c(NC(=O)Cc2cccs2)cc(=O)n(C)c1=O` was tested. Which “hERG current change (%, negative = inhibition) at 10uM” value did it give?
The value was 4.44%.

For `CN(C)c1cc[n+](CC(=O)Nc2ccc(Oc3ccccc3)cc2)cc1.[Cl-]`, which “hERG current change (%, negative = inhibition) at 10uM” value is on record?
Its value is -36.5%.

`O=C(CSc1ccccn1)N/N=C/c1cccc([N+](=O)[O-])c1` was tested. Which “hERG current change (%, negative = inhibition) at 10uM” value did it give?
Its value is -9.04%.

For `CCOc1ccc(NC(=O)C2CCN(S(=O)(=O)c3ccc4c(c3)NC(=O)C(C)S4)CC2)cc1` (stereo not shown), which “hERG current change (%, negative = inhibition) at 10uM” value is on record?
The value was 28.5%.

Which “hERG current change (%, negative = inhibition) at 10uM” value does the source give for `O=C(O)c1cn(Cc2ccccc2)nc1-c1cccnc1` here?
The value was 17.5%.

How did the “hERG current change (%, negative = inhibition) at 10uM” value turn out when `CC(C)Oc1ccc(CCC(=O)NNC(=S)Nc2ccccc2)cc1` was run?
Its value is 28.1%.

`CON=C1CCN(c2ncc(C(F)(F)F)cc2Cl)CC1` was tested. Which “hERG current change (%, negative = inhibition) at 10uM” value did it give?
Its value is -5.78%.

Which “hERG current change (%, negative = inhibition) at 10uM” value does the source give for `O=C(O)C1C2C=CC(C2)C1C(=O)NCc1ccc(Cl)cc1Cl` (stereo not shown) here?
Its value is 9.84%.

With `COc1ccc(CCNc2oc(-c3ccccc3OC)nc2C#N)cc1` as the molecule, how does the “hERG current change (%, negative = inhibition) at 10uM” value read?
The value was -20.6%.

`Nc1ccc(Nc2nc(-c3cccs3)cs2)cc1` was tested. Which “hERG current change (%, negative = inhibition) at 10uM” value did it give?
Its value is 3.53%.

Which “hERG current change (%, negative = inhibition) at 10uM” value does the source give for `CO/N=C/C(=N\Nc1ccc(OC)cc1)C(=O)c1ccc(F)cc1` here?
The value was 9.21%.

`COc1cc(CC(=O)NCc2cccs2)cc(OC)c1OC` was tested. Which “hERG current change (%, negative = inhibition) at 10uM” value did it give?
Its value is -5.54%.

Which “hERG current change (%, negative = inhibition) at 10uM” value does the source give for `Cc1nn(C(C)C(=O)NCc2ccccc2)c(C)c1[N+](=O)[O-]` (stereo not shown) here?
Its value is 9.44%.

How did the “hERG current change (%, negative = inhibition) at 10uM” value turn out when `Cc1c(Cl)cccc1NC(=S)NCc1ccccc1Cl` was run?
Its value is 22.1%.

How did the “hERG current change (%, negative = inhibition) at 10uM” value turn out when `COc1ccc(CC(=O)Nc2cccnc2)cc1` was run?
The value was 21.7%.

For `Cc1ccc(-c2noc(C3CCCN(S(=O)(=O)c4ccc(S(=O)(=O)N(C)C)cc4)C3)n2)o1` (stereo not shown), which “hERG current change (%, negative = inhibition) at 10uM” value is on record?
The value was 7.3%.

`COCCCNC(=O)c1ccc(OC)c(OC2CCN(C(C)C)CC2)c1` was tested. Which “hERG current change (%, negative = inhibition) at 10uM” value did it give?
The value was 10.3%.

How did the “hERG current change (%, negative = inhibition) at 10uM” value turn out when `CCOc1ccc(S(=O)(=O)N2CCCCC2)cc1NC(=O)C1CSC2(C)CCC(=O)N12` (stereo not shown) was run?
The value was -49.7%.

Which “hERG current change (%, negative = inhibition) at 10uM” value does the source give for `CS(=O)(=O)c1ccccc1-c1nnc(-c2ccc(Cl)cc2)o1` here?
Its value is -5.81%.

For `CC(C)CCNC(=O)Nc1ccc2c(c1)N(C)C(=O)CS2`, which “hERG current change (%, negative = inhibition) at 10uM” value is on record?
The value was 0.526%.

How did the “hERG current change (%, negative = inhibition) at 10uM” value turn out when `CC1(C)C2CCC1(C)C(OC(=O)CNc1ccccc1)C2` (stereo not shown) was run?
The value was 4.73%.

`CCC(Oc1ccccc1)C(=O)NCc1cccnc1` (stereo not shown) was tested. Which “hERG current change (%, negative = inhibition) at 10uM” value did it give?
The value was 6.28%.

With `O=C(COc1ccc2c(C(F)(F)F)cc(=O)oc2c1)NCc1cccs1` as the molecule, how does the “hERG current change (%, negative = inhibition) at 10uM” value read?
The value was 12.9%.

For `CCN(CC(=O)Nc1ccc(NC(C)=O)cc1)C(=O)c1sc2nc3n(c(=O)c2c1C)CCC3`, which “hERG current change (%, negative = inhibition) at 10uM” value is on record?
Its value is 2.85%.

Which “hERG current change (%, negative = inhibition) at 10uM” value does the source give for `COc1ccc(C(=O)ON=C2CCN(C)CC2)cc1.Cl` here?
The value was 12.8%.

How did the “hERG current change (%, negative = inhibition) at 10uM” value turn out when `CCN(CC)S(=O)(=O)c1ccc(Cl)c(C(=O)Nc2nnc(C)s2)c1` was run?
Its value is -2.96%.

How did the “hERG current change (%, negative = inhibition) at 10uM” value turn out when `Cc1cccc([C@@H](NC(=O)OC(C)(C)C)C(=O)OC(C)(C)C)c1` was run?
Its value is -15.6%.
